Out of some 45,000 compounds screened, about 200 (0.44%) were called active. Roughly 7% stayed inconclusive and do not appear here. Calls follow the shape of the dose curve; as a rule, active = well fitted activation curve with a large enough effect; inconclusive = small, poorly fitted or top-dose-only effect; inactive = no such curve, though single readings can be large or run the other way. This is one part of the list.
Assay: qHTS of TDP-43 Inhibitors: NCGC Sytravon Library Screen; also: nearly all actives have a fitted effect of over 55% in size; as to growth rescue (activation): 0% is about no effect
Conditions: yeast TDP-43 toxicity rescue, BacTiter-Glo growth, 24 h; series mostly up to 46.1 µM; growth rescue (activation): at the top concentration
Procedure, shortened: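 TDP-43-expressing yeast, pregrown in raffinose, seeded at OD600 0.02 in galactose medium with compound for 24 hr at 30 deg C. Growth read by BacTiter-Glo luminescence, so rescue of toxicity appears as activation.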
Potency is read from the fitted curve at half-maximal effect.

| SMILES | growth rescue (activation) | Potency |
| --- | --- | --- |
| Cc1ccc(COc2ccc3c(c2)OCO3)cc1 | inactive: 12.3% |  |
| O=C(O)C1(c2ccccc2)CCN(S(=O)(=O)c2ccc(F)c(F)c2)CC1 | inactive: -9.45% |  |
| COc1ccc(OCc2nnc(SCC(=O)c3ccccc3)o2)cc1 | inactive: 32.9% |  |
| COc1ccc(CC(=O)N/N=C(\C)CC(=O)Nc2ccc(N(C)C)cc2)cc1 | inactive: 7.68% |  |
| COc1ccc2cc(C(=O)C3CCCN(C(=O)CCc4ccccn4)C3)ccc2c1 (configuration not stated) | inactive: -0.582% |  |
| CC(=O)N1CCN(c2ccc(NC(=O)c3ccco3)cc2)CC1 | inactive: 8.05% |  |
| Cc1nn(CCCC(=O)N2CCN(c3ccc(F)cc3)CC2)c(C)c1[N+](=O)[O-] | inactive: 29.5% |  |
| COc1cc(S(=O)(=O)Nc2ccc3cn[nH]c3c2)ccc1Cl | inactive: -2% |  |
| Cc1ccc(/C=C/C(=O)OCC(=O)NC(C)C)o1 | inactive: -4.56% |  |
| O=C(Nc1ccc(N2CCOCC2)cc1)c1ccc(Br)o1 | inactive: 6.62% |  |
| Cc1cc(C)nc(/N=C(\N)Nc2ccc(S(=O)(=O)O)cc2)n1 | inactive: -11.1% |  |
| NC(=O)COC(=O)CNC(=O)c1cc(Cl)cc([N+](=O)[O-])c1 | inactive: 1.02% |  |
| Oc1ccccc1-c1nc(/C=C/c2ccc(F)cc2)nn1-c1ccccc1 | inactive: 3.14% |  |
| O=C(NCCCCc1ccccc1)c1cc([N+](=O)[O-])cc([N+](=O)[O-])c1 | inactive: 21.6% |  |
| CCOc1ccc(S(=O)(=O)N(CC)CC(=O)NCc2cccnc2)cc1C | inactive: -5.45% |  |
| CCN1CC=C2C(C#N)=C(N)C(C#N)(C#N)[C@H](c3ccoc3)[C@H]2C1 | inactive: 13.3% |  |
| COc1ccccc1C(=O)NNC(=O)C(=O)NC1CCCCC1 | inactive: 28.9% |  |
| COc1ccc(-c2nn3c(-c4ccccc4C)nnc3c3ccccc23)cc1 | inactive: 11.6% |  |
| O=C(NNC(=O)C1CCN(Cc2ccc(F)cc2Cl)CC1)Nc1ccc([N+](=O)[O-])cc1 | inactive: 9.85% |  |
| C/C(=N\Nc1ccccn1)c1ccc(S(=O)(=O)NCc2ccco2)cc1 | inactive: -0.611% |  |
| CC(C)c1nc2sc3c(SCC(=O)NCc4ccco4)ncnc3c2c2c1CCC2 | inactive: 11.6% |  |
| CC(NC(=O)c1ccccc1)C(=O)NC1CCCc2ccccc21 (configuration not stated) | inactive: 18.5% |  |

| SMILES | growth rescue (activation) | Potency |
| --- | --- | --- |
| CCNC(=O)C(Cc1ccccc1)NC(=O)OCc1ccccc1 (configuration not stated) | inactive: 6.87% |  |
| COc1ccc(OCc2nnc(SCC(=O)Nc3cccc(Cl)c3)o2)cc1 | inactive: 22.1% |  |
| OCCC1CN(Cc2cccn2-c2cccnc2)CCN1Cc1ccccc1 (configuration not stated) | inactive: 9.53% |  |
| Cc1cc(C)n2c(SCC(=O)NC3CCCC(C)C3C)nnc2n1 (configuration not stated) | inactive: 17.3% |  |
| CO/N=C/NC(=O)NOCc1c(Cl)cccc1Cl | inactive: -20.5% |  |
| CNc1nc(NCc2cccc(OC)c2)c2sccc2n1 | inactive: 7.7% |  |
| Cc1ccc(S(=O)(=O)N2CCN(C(=O)CC(C)n3cncn3)CC2)cc1C (configuration not stated) | inactive: 14.6% |  |
| Cc1ccc(S(=O)(=O)CCC(=O)Nc2ccc(F)cc2)cc1 | inactive: -15.2% |  |
| Cn1c(-c2ccc3c(c2)OCO3)cnc1NCc1ccccc1Cl | inactive: -7.94% |  |
| Cc1c(NC(=O)CN2CC(C)OC(C)C2)c(=O)n(-c2ccccc2)n1C (configuration not stated) | inactive: -2.22% |  |
| Cc1cccc(Oc2coc3cc(OC(=O)c4cncc(Br)c4)ccc3c2=O)c1 | inactive: 4.26% |  |
| O=C(COc1ccc(S(=O)(=O)N2CCOCC2)cc1Cl)NCCN1CCOCC1 | inactive: 11.3% |  |
| COc1ccccc1-n1cnc2cc(NCc3cccs3)ccc21 | inactive: 29.4% |  |
| COc1ccc(Br)cc1C(=O)NC(=S)Nc1ccc(Cl)c(C(=O)O)c1 | inactive: -8.2% |  |
| O=C(Cn1cc(C(F)(F)F)ccc1=O)N1CCCc2ccccc21 | inactive: 4.31% |  |
| COc1ccc(/C=N/NC(=O)c2ccn[nH]2)cc1CN1CCOCC1 | inactive: -4.55% |  |
| CCCCCCCCNC(=S)NCCN1CCCCC1 | inactive: -7.58% |  |
| O=C(CN(c1cccc([N+](=O)[O-])c1)S(=O)(=O)c1ccccc1)NCc1cccnc1 | inactive: 13.5% |  |
| Fc1ccc(C2=CC(c3ccco3)n3nnnc3N2)cc1 (configuration not stated) | inactive: 14.6% |  |
| Nc1ccc(N2CCN(c3ccc(F)cc3)CC2)cc1 | inactive: -10.2% |  |
| Cc1cccc(NC(=S)NNC(=O)c2ccc(O)cc2O)c1C | inactive: 24.6% |  |
| COc1ccc(C(=O)OCC(=O)NCc2ccccc2)c(OC)c1OC | inactive: 2.79% |  |

| SMILES | growth rescue (activation) | Potency |
| --- | --- | --- |
| O=C(NC(c1ccccc1)c1ccc2ccccc2n1)C1CCN(CCOc2ccc(Cl)cc2)CC1 (configuration not stated) | inactive: -3.68% |  |
| NC(=O)CN1C(=O)NC(c2ccccc2)(c2ccccc2)C1=O | inactive: -4.82% |  |
| O=C(Nc1ccc(S(=O)(=O)Nc2ncccn2)cc1)c1ccccc1Cl | inactive: 1.47% |  |
| COc1ccc2c(CCNC(=O)c3ccc([N+](=O)[O-])cc3)c[nH]c2c1 | inactive: 3.15% |  |
| CSc1ncc(C(=O)Nc2cccc(Cl)c2C)c(C)n1 | inactive: 23.5% |  |
| COc1ccc(OCc2nnc(SCC(=O)NNC(=O)c3ccc(C)cc3)n2C)cc1 | inactive: -25.4% |  |
| CCOc1ccc(CN(C)C(=O)CNC(=O)C2CCCCC2)cc1 | inactive: -4.38% |  |
| O=C1CCCN1C(=O)CSc1ncnc2sccc12 | inactive: 25.6% |  |
| O=C(Nc1ccc(Oc2ccccc2)cc1)c1csc([C@@H]2O[C@H](CO)[C@H](O)[C@H](O)[C@H]2O)n1 | inactive: 6.69% |  |
| O=C(NCc1ccc(F)cc1)C1CCN(S(=O)(=O)c2cccc3nonc23)CC1 | inactive: 7.77% |  |
| COC(=O)c1ccccc1NC(=O)CCCn1nc([N+](=O)[O-])cc1C | inactive: 11.7% |  |
| O=C(O)CC1(CC(=O)N2CCC(C(=O)O)CC2)CCCC1 | inactive: 12.1% |  |
| CC12CCC(C(=O)Nc3nc4ccccc4s3)(OC1=O)C2(C)C (configuration not stated) | inactive: 11.5% |  |
| CC(C)(C)c1ccc(Oc2coc3cc(OCC(=O)O)ccc3c2=O)cc1 | inactive: 13.7% |  |
| COc1cc(CC(=O)OCC(=O)Nc2cccc([N+](=O)[O-])c2)cc(OC)c1OC | inactive: 9.63% |  |
| O=C(c1ccc(S(=O)(=O)N2CCCC2)cc1)N1CCN(c2cccc(Cl)c2)CC1 | inactive: 37.4% |  |
| COC(=O)c1cc(-c2ccc(F)cc2)n(-c2ccccc2)n1 | inactive: 29.6% |  |
| O=C(O)c1cc(N2C(=O)C3CCCCC3C2=O)ccc1NCc1cccnc1 (configuration not stated) | inactive: -46.6% |  |
| CCCCN1C(=O)c2ccc(C(=O)Nc3ccc(S(=O)(=O)N(C)C)cc3)cc2C1=O | inactive: 13.3% |  |
| O=S(=O)(c1ccc2ccccc2c1)N1CCN(C(=S)Nc2ccc(F)cc2)CC1 | inactive: 19.2% |  |
| COCCN(Cc1cc2cc(C)ccc2n2nnnc12)C(=S)Nc1cccc(C)c1 | inactive: -1.02% |  |
| Cc1cccc(OCC(=O)NCC(=O)N/N=C/c2cccnc2)c1 | inactive: 0.606% |  |

| SMILES | growth rescue (activation) | Potency |
| --- | --- | --- |
| CC(=O)c1ccc(NC(=O)C2CCCN(S(=O)(=O)c3cccc4nonc34)C2)cc1 (configuration not stated) | inactive: -2.08% |  |
| C=CCN(CC=C)c1ccc(N2C(=O)C3CCCCC3C2=O)cc1[N+](=O)[O-] (configuration not stated) | inactive: 28.7% |  |
| COc1ccc(NC(=O)CCN2C(=O)c3cccc([N+](=O)[O-])c3C2=O)cc1 | inactive: 5.22% |  |
| CCCCC(=O)NNC(=O)N1c2ccccc2Sc2ccccc21 | inactive: 16.7% |  |
| COc1ccccc1-c1cnc(C(O)c2ccc(CN3CCCCC3)cc2)[nH]1 (configuration not stated) | inactive: -9.77% |  |
| O=C(NCc1ccc2c(c1)OCO2)C1CCN(S(=O)(=O)c2cccc3nsnc23)CC1 | inactive: 14% |  |
| Cc1ccc(NS(=O)(=O)c2ccc3c(c2)oc(=O)n3C)c(C)c1 | inactive: 1.6% |  |
| CN(C)C1CCN(C(=O)c2cccc(OC3CCN(S(=O)(=O)N(C)C)CC3)c2)C1 (configuration not stated) | inactive: 18.8% |  |
| CN(C)c1ccc(Nc2nc(N)c3ccccc3n2)cc1 | inactive: -75.7% |  |
| CC(=O)Nc1ccc(NC(=S)NC(=O)c2cc3ccccc3o2)cc1 | inactive: 12.8% |  |
| NC1=NC(c2cccc(Cl)c2)n2c(nc3ccccc32)N1 (configuration not stated) | inactive: 3.26% |  |
| COc1ccc2c(-c3ccccc3)cc(N3CCOCC3)nc2c1 | inactive: -13.7% |  |
| CC(=O)Nc1ccc(NC(=O)COC(=O)c2ccco2)cc1 | inactive: 8.46% |  |
| CC(=O)Nc1ccc(Nc2cc(N(C)C)c3nonc3c2[N+](=O)[O-])cc1 | inactive: 8.86% |  |
| COCCOC(=O)C1=C(C)NC(C)=C(C(=O)OCCOC)C1/C=C/c1ccccc1OC | inactive: 15.8% |  |
| O=S(=O)(NCc1cccnc1)c1ccc2ccccc2c1 | inactive: -9.89% |  |
| COc1cccc(C(=O)OCC(=O)c2c[nH]c3ccccc23)c1O | inactive: 19% |  |
| Cc1[nH]c(SCC(=O)Nc2cc(C(N)=O)cc(C(N)=O)c2)nc1Cc1ccccc1 | inactive: -1.33% |  |
| O=C(/C=C/c1ccc([N+](=O)[O-])cc1)NCc1ccco1 | inactive: 4.27% |  |
| Nc1ncn(-c2ncc(C(F)(F)F)cc2Cl)n1 | inactive: -16.4% |  |
| COCCn1c(-c2ccc(OC(F)(F)C(F)C(F)(F)F)cc2)nc2c1c(=O)[nH]c(=O)n2CC(C)C (configuration not stated) | inactive: 13.7% |  |
| Cc1ccc(CSc2nnc(-c3ccco3)o2)cc1 |  | active: 12.6 µM |

| SMILES | growth rescue (activation) | Potency |
| --- | --- | --- |
| O=C(c1ccco1)N1CCN(Cc2nnc(-c3ccccc3F)o2)CC1 | inactive: -8.55% |  |
| O=C(Nc1ccc(S(=O)(=O)N2CCOCC2)cc1)C1CC1 | inactive: 8.27% |  |
| Cc1ccc(-c2nc(CN(C)Cc3ccc4nccnc4c3)c(C)o2)s1 | inactive: 14.9% |  |
| Cc1ccccc1-n1c(C)nnc1SCC(=O)NNC(=O)c1ccccc1 | inactive: 5.23% |  |
| O=C(c1ccccc1)c1c[nH]c(C(=O)C(Cl)(Cl)Cl)c1 | inactive: 9.46% |  |
| COc1ccc(-c2nnc(SCC(=O)NC(C)c3ccccc3)o2)cc1OC (configuration not stated) | inactive: 13.4% |  |
| Cc1c(CCOC(=O)c2ccc([N+](=O)[O-])cc2)sc[n+]1CC(=O)c1ccccc1 | inactive: 4.24% |  |
| Cc1cc(F)ccc1S(=O)(=O)Nc1ccc(O)c(Sc2ncn[nH]2)c1 | inactive: 3.42% |  |
| CC(=O)c1cccc(NC(=O)CCCNC(=O)c2ccc(Cl)cc2)c1 | inactive: 6.6% |  |
| COc1ccccc1CC(=O)NC1CCC(C)CC1 (configuration not stated) | inactive: -0.0925% |  |
| COc1cc(C(c2c(C)[nH][nH]c2=O)c2c(C)[nH][nH]c2=O)ccc1OC(=O)c1cccc([N+](=O)[O-])c1 | inactive: 4.15% |  |
| O=C(OCC(=O)N1CCCC1)c1cc(F)c(F)cc1Cl | inactive: 3.82% |  |
| C/C(=N\NC(=S)Nc1ccccc1C)C1Cc2ccccc2C(=O)O1 (configuration not stated) | inactive: 2.21% |  |
| CC(=O)C1=C(c2ccccc2)NC(=S)NC1c1cc(Cl)c(OC(C)C)c(Cl)c1 (configuration not stated) | inactive: -13.7% |  |
| CCc1nc2ccc(C(=O)N(C)CCCN(C)C)cn2c1N(CC)CCOC | inactive: 12.4% |  |
| Cc1cc(C)nc(N2CCCC(C(=O)NC3CC3)C2)n1 (configuration not stated) | inactive: 0.966% |  |
| CC(C)COc1ccc(C(=O)OCCN2CCCCC2)cc1 | inactive: 6.57% |  |
| COc1ccc(S(=O)(=O)Nc2ccc(S(=O)(=O)Nc3nccs3)cc2)cc1 | inactive: -6.77% |  |
| CSCCC(NS(=O)(=O)c1ccc(C)c(C(=O)O)c1)C(=O)O (configuration not stated) | inactive: -3.71% |  |

Reference: PubChem BioAssay AID1347073 (National Center for Advancing Translational Sciences (NCATS), 2019)
